# Key:
# [1] = target: T1, TGFβ1 (Sinobiological, catalog number: 10804-HNAC) (UniProt P01137 partial chain); assay: ELISA, TGFβ1 coated at 0.2 µg/mL, fusion protein 1 µg/mL
# T1 construct: Bought recombinant protein; also called TGFβ1 protein
# [2] = target: T2, PDL1 protein (Sinobiological, catalog number: 10084-H08H) (UniProt Q9NZQ7 partial chain); assay: SPR (BIAcore 8K), fusion protein captured by anti-human IgG Fc, PDL1 as analyte 3.125-50 nM, 1:1 model
# T2 construct: Bought recombinant protein
# [3] = target: T1, TGFβ1 (Sinobiological, catalog number: …); assay: ELISA, TGFβ1 coated at 0.05 µg/mL, fusion protein 1 µg/mL
# [4] = target: T1, TGFβ1 (Sinobiological, catalog number: …); assay: ELISA, TGFβ1 coated at 0.0125 µg/mL, fusion protein 1 µg/mL
# T2 sequence (Q9NZQ7 19-239 limits assumed): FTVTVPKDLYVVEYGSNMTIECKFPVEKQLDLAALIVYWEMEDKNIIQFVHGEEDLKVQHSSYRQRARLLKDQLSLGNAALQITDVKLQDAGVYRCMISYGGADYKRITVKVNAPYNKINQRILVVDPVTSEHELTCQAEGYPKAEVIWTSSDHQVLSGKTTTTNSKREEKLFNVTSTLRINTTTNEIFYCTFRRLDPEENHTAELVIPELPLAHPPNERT
# T1 sequence (P01137 279-390 limits assumed): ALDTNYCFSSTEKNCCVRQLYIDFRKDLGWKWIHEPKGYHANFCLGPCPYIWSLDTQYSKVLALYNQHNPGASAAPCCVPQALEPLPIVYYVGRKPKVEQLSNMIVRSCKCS
OD450 [1] [OD450],Kd [2] [pM],koff [2] [s⁻¹],kon [2] [M⁻¹ s⁻¹],OD450 [3] [OD450],OD450 [4] [OD450],Binder
3.4,730,0.00101,1.39e+06,1.46,0.388,"PLTGBH03-BT613-IgG1 (other, Bifunctional fusion protein: anti-PDL1 IgG1 antibody with a TGFβRII fragment at the C-terminus of the heavy chain; also called BA613) heavy: EVQLVQSGGGVVQPGKSLRLSCAASGFTFSSYSMHWVRQAPGKGLEWVALISFDGSNKYYADSVKGRFTISRDNSKNTLYLQMTSLRTEDTAVYYCARDRIYLDYWGQGTLVTVSS[human IgG1 constant region not listed]GGGGSGGGGSGGGGSGGGGSGIPPHVQKSVNNDMIVTDNNGAVKFPQLCKFCDVRFSTCDNQKSCMSNCSITSICEKPQEVCVAVWRKNDENITLETVCHDPKLPYHDFILEDAASPKCIMKEKKKPGETFFMCSCSSDECNDNIIFSEEYNTSNPD light: ELVLTQSPDSLAVSLGERATINCKSSQSVLYSSNNKNYLAWYQQKPGQPPKLLIYWASTRESGVPDRFSGSGSGTDFTLTISSLQAEDVAVYYCQQYYSTPLTFGGGTKVDIKRTVAAPSVFIFPPSDEQLKSGTASVVCLLNNFYPREAKVQWKVDNALQSGNSQESVTEQDSKDSTYSLSSTLTLSKADYEKHKVYACEVTHQGLSSPVTKSFNRGEC"
3.93,764,0.00136,1.78e+06,2.35,0.728,"PLTGBQ21-BA669-IgG1 (other, Bifunctional fusion protein: anti-PDL1 IgG1 antibody with a TGFβRII fragment at the C-terminus of the heavy chain) heavy: QVQLVESGGGVVQPGRSLRLSCAASGFTFSSYAMHWVRQAPGKGLEWVALISYDGSNKYYADSVKGRFTISRDNSKNTLYLQMNSLRAEDTAVYYCARDRIYFDYWGQGTLVTVSS[human IgG1 constant region not listed]GGGGSGGGGSGGGGSGGGGSGIPPHVQKSVNNDMIVTDNNGAVKFPQLCKFCDVRFSTCDNQKSCMSNCSITSICEKPQEVCVAVWRKNDENITLETVCHDPKLPYHDFILEDAASPKCIMKEKKKPGETFFMCSCSSDECNDNIIFSEEYNTSNPD light: DIVMTQSPDSLAMSLGERATINCKSSQSVLYNSNNKNYLAWYQQKPGQPPKLLTYWASTRESGVPDRFSGSGSGTDFTLTISSLQAEDVAVYYCQQYYSLPLTFGGGTKVEIKRTVAAPSVFIFPPSDEQLKSGTASVVCLLNNFYPREAKVQWKVDNALQSGNSQESVTEQDSKDSTYSLSSTLTLSKADYEKHKVYACEVTHQGLSSPVTKSFNRGEC"
3.83,2030,0.00232,1.14e+06,2.01,0.88,"PLTGBQ16-BA466-IgG1 (other, Bifunctional fusion protein: anti-PDL1 IgG1 antibody with a TGFβRII fragment at the C-terminus of the heavy chain; also called BA446) heavy: EVQLVQSGGGVVQPGRSLRLSCAASGFTFSSYAMHWVRQAPGKGLEWVAAISYDGSNKYYADSVKGRFTISRDNSKNTLYLQMNSLRAEDTAVYYCARDRIFFDYWGQGTLVTVSS[human IgG1 constant region not listed]GGGGSGGGGSGGGGSGGGGSGIPPHVQKSVNNDMIVTDNNGAVKFPQLCKFCDVRFSTCDNQKSCMSNCSITSICEKPQEVCVAVWRKNDENITLETVCHDPKLPYHDFILEDAASPKCIMKEKKKPGETFFMCSCSSDECNDNIIFSEEYNTSNPD light: EIVMTQSPDSLAVSLGERATINCKSSQSVLYSSNNKNYLAWYQQKPGQPPKLLIDWASTRESGVPDRFSGSGSGTDFTLTISSLQAEDVAVYYCQQYYSFPLTFGGGTKVEIKRTVAAPSVFIFPPSDEQLKSGTASVVCLLNNFYPREAKVQWKVDNALQSGNSQESVTEQDSKDSTYSLSSTLTLSKADYEKHKVYACEVTHQGLSSPVTKSFNRGEC"
3.92,963,0.00164,1.7e+06,2.37,0.861,"PLTGBQ24-BA603-IgG1 (other, Bifunctional fusion protein: anti-PDL1 IgG1 antibody with a TGFβRII fragment at the C-terminus of the heavy chain) heavy: EVQLVQSGGGVVQPGRSLRLSCAASGFTFSSYAMHWVRQAPGKGLEWVALISYDGSNKYYADSVKGRFITSRDNSKNTLYLQMNSLRAEDTAVYYCARDRIYFDYWGQGTLVTVSS[human IgG1 constant region not listed]GGGGSGGGGSGGGGSGGGGSGIPPHVQKSVNNDMIVTDNNGAVKFPQLCKFCDVRFSTCDNQKSCMSNCSITSICEKPQEVCVAVWRKNDENITLETVCHDPKLPYHDFILEDAASPKCIMKEKKKPGETFFMCSCSSDECNDNIIFSEEYNTSNPD light: DIVMTQSPDSLAVSLGERATINCKSSQSVLYSSNNKNYLAWYQQKPGQPPKLLIYWASTRESGVPDRFSGSGSGTDFTLTISSLQAEDVAVYYCQQYYSIPITFGQGTKLEIKRTVAAPSVFIFPPSDEQLKSGTASVVCLLNNFYPREAKVQWKVDNALQSGNSQESVTEQDSKDSTYSLSSTLTLSKADYEKHKVYACEVTHQGLSSPVTKSFNRGEC"
3.85,1340,0.00179,1.34e+06,2.3,0.813,"PLTGBQ21-BA623-IgG1 (other, Bifunctional fusion protein: anti-PDL1 IgG1 antibody with a TGFβRII fragment at the C-terminus of the heavy chain) heavy: EVQLVQSGGGVVQPGRSLRLSCAASGFTFSNYAMHWVRQAPGKGLEWVALISYDGSNKYYADSVKGRFTISRDNSKNTLYLQMNSLRAEDTAVYYCARDRIYFDYWGQGTLVTVSS[human IgG1 constant region not listed]GGGGSGGGGSGGGGSGGGGSGIPPHVQKSVNNDMIVTDNNGAVKFPQLCKFCDVRFSTCDNQKSCMSNCSITSICEKPQEVCVAVWRKNDENITLETVCHDPKLPYHDFILEDAASPKCIMKEKKKPGETFFMCSCSSDECNDNIIFSEEYNTSNPD light: DIQMTQSPDSLAVSLGERATINCKSSQSVLYSSNNKNYLAWYQQKPGQPPKLLIYWASIRDSGVPDRFSGSGSGTDFTLTISSLQAEDAAVYYCQQFYSIPLTFGGGTKVEIKRTVAAPSVFIFPPSDEQLKSGTASVVCLLNNFYPREAKVQWKVDNALQSGNSQESVTEQDSKDSTYSLSSTLTLSKADYEKHKVYACEVTHQGLSSPVTKSFNRGEC"
